This passage reports log2 surviving fraction results from the supplement of paper PMC8047034.

Counter-ions that a name gives are not always drawn. This is one part of the list. Many values rest on one well or one pass, so single values are uncertain.

In this assay the test system is OVCAR4. Kind of assay: log2 surviving fraction (library drug vs vehicle, or drug + carboplatin vs carboplatin alone; relative to plate median); ovarian cancer lines: OVCAR4 is platinum-sensitive and Ov4Carbo platinum-resistant; higher = more cell survival. To be noted: library drug concentration 10 µM; 7 days; carboplatin co-treatment 0 µM.
`Clc1ccc2nsnc2c1NC1=NCCN1` [Tizanidine HCl]: the log2 surviving fraction stood at 0.653. For the compound `C[C@]12CCC(=O)C=C1CC[C@@H]1[C@@H]2[C@@H](O)C[C@@]2(C)[C@H]1CC[C@]2(O)C(=O)CO` [Hydrocortisone (Cortisol)], the log2 surviving fraction is -1.54. With `CN(C)c1cc(NC(=O)CNC(C)(C)C)c(O)c2c1C[C@H]1C[C@H]3[C@H](N(C)C)C(O)=C(C(N)=O)C(=O)[C@@]3(O)C(O)=C1C2=O` [Tigecycline], the log2 surviving fraction was -0.0249. `O=c1ccc2ccccc2o1` [Coumarin]: the log2 surviving fraction is 0.981.

For `C[C@]12C=CC(=O)C=C1CC[C@@H]1[C@@H]2[C@@H](O)C[C@@]2(C)[C@H]1CC[C@]2(O)C(=O)CO` [Prednisolone (Hydroretrocortine)], the log2 surviving fraction came to 0.492. As for `C[C@H](CS)C(=O)N1CCC[C@H]1C(=O)O` [Captopril (Capoten)], the figure is 1.79; as for `CC(=O)N[C@@H](CS)C(=O)O` [Acetylcysteine], -4.67.

As to `CN(C)CCCN1c2ccccc2Sc2ccc(C(F)(F)F)cc21` [Triflupromazine HCl], the log2 surviving fraction is -0.576. Next, `Cc1ccc(C(=O)c2ccc(CC(=O)O)n2C)cc1` [Tolmetin Sodium]: 1.43.

`C[C@@H]1C(=O)O[C@H]2C[C@@]34[C@H]5C[C@@H](C(C)(C)C)[C@]36[C@@H](OC(=O)[C@@H]6O)O[C@@]4(C(=O)O5)[C@]21O` [Ginkgolide A]: the log2 surviving fraction was -0.955. For the compound `CN1CCC[C@@H]1CCO[C@](C)(c1ccccc1)c1ccc(Cl)cc1` [Clemastine Fumarate], the log2 surviving fraction was -1.74. On to `NCCc1c[nH]cn1` [Histamine Phosphate], for which the log2 surviving fraction came to 1.04. For `CN(C)C(=O)Oc1ccc[n+](C)c1` [Pyridostigmine Bromide (Mestinon)], the log2 surviving fraction turned out to be 1.1. Turning to `O=C(O)[C@H](CC(=O)N1C[C@H]2CCCC[C@H]2C1)Cc1ccccc1` [Mitiglinide calcium], the log2 surviving fraction came to 0.313.

Consider `N[C@@H](Cc1cc(I)c(Oc2cc(I)c(O)c(I)c2)c(I)c1)C(=O)O` [L-Thyroxine], for which the log2 surviving fraction is -0.365. Regarding `CN(C/C=C/C#CC(C)(C)C)Cc1cccc2ccccc12` [Terbinafine hydrochloride (Lamisil)], the log2 surviving fraction was 0.203. `CC(C)c1nc(CN(C)C(=O)N[C@@H](CCN2CCOCC2)C(=O)N[C@H](CC[C@H](Cc2ccccc2)NC(=O)OCc2cncs2)Cc2ccccc2)cs1` [Cobicistat (GS-9350)]: the log2 surviving fraction is -1.4. On to `CS(=O)(=O)OCCCCOS(C)(=O)=O` [Busulfan (Myleran, Busulfex)], for which the log2 surviving fraction worked out at 0.617. Consider `CN(C)c1ccc(O)c2c1C[C@H]1C[C@H]3[C@H](N(C)C)C(O)=C(C(N)=O)C(=O)[C@@]3(O)C(O)=C1C2=O` [Minocycline HCl], for which the log2 surviving fraction came out at 0.685.

With `CCCCCCCCCCCCCCCCO` [1-Hexadecanol], the log2 surviving fraction is -0.661. With `COc1cc2nc(N3CCN(C(=O)c4ccco4)CC3)nc(N)c2cc1OC` [Prazosin HCl], the log2 surviving fraction was -0.947. As for `C=CC(=O)N1CCC[C@@H](n2nc(-c3ccc(Oc4ccccc4)cc3)c3c(N)ncnc32)C1`, the figure is -3.05. `C=C1/C(=C\C=C2/CCC[C@]3(C)[C@@H]([C@H](C)CCCC(C)(C)O)CC[C@@H]23)C[C@@H](O)C[C@@H]1O` [Calcitriol (Rocaltrol)]: the log2 surviving fraction was -1.44.

As for `CCN1CCCC1CNC(=O)c1cc(S(=O)(=O)CC)c(N)cc1OC` (stereo not given) [Amisulpride], the log2 surviving fraction was -0.644. As for `CC1(C)O[C@@H]2C[C@H]3[C@@H]4C[C@H](F)C5=CC(=O)C=C[C@]5(C)[C@@]4(F)[C@@H](O)C[C@]3(C)[C@]2(C(=O)CO)O1` [Fluocinolone acetonide (Flucort-N)], the figure is 0.18; as for `COC(c1ccccc1)(c1ccccc1)[C@H](Oc1nc(C)cc(C)n1)C(=O)O` [Ambrisentan], -0.633; as for `CC(C)(C)NCC(O)c1ccc(O)c(CO)c1` (stereo not given) [Salbutamol sulfate (Albuterol)], -0.966.

For the compound `CCOc1cc(CC(=O)N[C@@H](CC(C)C)c2ccccc2N2CCCCC2)ccc1C(=O)O` [Repaglinide], the log2 surviving fraction is -3.52.

As to `CCn1cc(C(=O)O)c(=O)c2cc(F)c(N3CCN(C)CC3)cc21` [Pefloxacin mesylate], the log2 surviving fraction was found to be 0.514. For `CCN(CC)CCOC(=O)c1ccc(N)cc1` [Procaine (Novocaine) HCl], the log2 surviving fraction came out at 0.877. Next, `CC(C)NCC(O)c1ccc(O)c(O)c1` (stereo not given) [Isoprenaline hydrochloride]: 0.00949; `CN(C)CCCN1c2ccccc2CCc2ccc(Cl)cc21` [Clomipramine hydrochloride (Anafranil)]: -2.07.

For the compound `CC(=O)[C@H]1CC[C@H]2[C@@H]3C[C@H](C)C4=CC(=O)CC[C@]4(C)[C@H]3[C@@H](O)C[C@]12C` [Medrysone], the log2 surviving fraction is -0.215. As for `N=C(N)NS(=O)(=O)c1ccc(N)cc1` [Sulfaguanidine], the log2 surviving fraction was -0.422. Regarding `CN(N=O)C(=O)N[C@@H](C=O)[C@@H](O)[C@H](O)[C@H](O)CO` [Streptozotocin (Zanosar)], the log2 surviving fraction was -0.757. With `CCCCC1=NC2(CCCC2)C(=O)N1Cc1ccc(-c2ccccc2-c2nnn[nH]2)cc1` [Irbesartan (Avapro)], the log2 surviving fraction is 1.36. As for `O=C(O)C1=CO[C@@H](O[C@@H]2O[C@H](CO)[C@@H](O)[C@H](O)[C@H]2O)[C@@H]2C(CO)=CC[C@H]12` [Geniposidic acid], the figure is 0.956. In the case of `CCOC(=O)c1c(CSc2ccccc2)n(C)c2cc(Br)c(O)c(CN(C)C)c12` [Arbidol HCl], the log2 surviving fraction is -0.303. Take `CC(=O)OC[C@H]1O[C@@H]([S-])[C@H](OC(C)=O)[C@@H](OC(C)=O)[C@@H]1OC(C)=O.CCP(CC)CC.[Au+]` [Auranofin]: the log2 surviving fraction was -8.7. Consider `C[C@]12CC[C@H]3[C@@H](CC[C@@]45O[C@@H]4C(O)=C(C#N)C[C@]35C)[C@@H]1CC[C@@H]2O` [Trilostane], for which the log2 surviving fraction was -0.238.
